Data: PubChem BioAssay AID588342 (National Center for Advancing Translational Sciences (NCATS), 2011)
Screen size: about 360,000 compounds; about 25,000 (6.9%) were called active. The inconclusive results got no clear call from the source; some entries with a clear call stand among them for comparison. The call rests on the fitted dose curve; in most records, active means well fitted inhibition curve with a large enough effect; inconclusive means small, poorly fitted or top-dose-only effect; inactive means flat fitted curve, though single readings scatter. Where the call is inconclusive, the potency comes from a doubtful curve fit.

Target: Luciferin 4-monooxygenase (Photinus pyralis) (UniProt P08659)
Chain of UniProt P08659 (P08659 whole entry, looked up): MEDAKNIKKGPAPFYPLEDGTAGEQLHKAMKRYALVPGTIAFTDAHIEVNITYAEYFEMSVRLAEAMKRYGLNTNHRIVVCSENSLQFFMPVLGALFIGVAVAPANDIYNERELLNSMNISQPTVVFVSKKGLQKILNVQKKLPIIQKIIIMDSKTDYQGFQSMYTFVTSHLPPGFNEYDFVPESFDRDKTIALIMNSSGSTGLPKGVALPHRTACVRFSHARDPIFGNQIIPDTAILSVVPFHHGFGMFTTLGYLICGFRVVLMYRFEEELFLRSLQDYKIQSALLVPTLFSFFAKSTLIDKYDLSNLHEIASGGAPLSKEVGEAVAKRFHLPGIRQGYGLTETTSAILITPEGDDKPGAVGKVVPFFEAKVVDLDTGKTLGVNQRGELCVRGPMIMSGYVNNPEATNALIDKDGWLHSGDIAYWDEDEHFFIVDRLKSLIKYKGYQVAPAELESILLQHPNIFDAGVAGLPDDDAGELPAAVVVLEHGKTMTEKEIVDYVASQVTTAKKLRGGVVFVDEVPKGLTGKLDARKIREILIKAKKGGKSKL
Assay: qHTS profiling assay for firefly luciferase inhibitor/activator using purifed enzyme and Km concentrations of substrates (counterscreen for miR-21 project); further: nearly all actives have a fitted effect of over 55% in size
Details: purified FLuc, luminescence inhibition; series mostly up to 57.5 µM
Method in brief: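 Purified P. pyralis luciferase, 10 nM final, with Km-level 10 uM D-luciferin and 10 uM ATP in 50 mM Tris acetate pH 7.5, 10 mM Mg acetate, 0.01% Tween-20, 0.05% BSA; 6-point qHTS titration about 60 µM downward; luminescence read.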
Potency means the concentration at half of the fitted maximal effect; tags describe the fitted curve by direction and shape.

| Compound | Potency |
| --- | --- |
| COCCN(CC(=O)Nc1cccc(S(=O)(=O)N2CCCC2)c1)Cc1nc2ccccc2c(=O)[nH]1 | inactive |
| Cc1ccc(C2=NOC(=O)/C2=C\C=C\c2ccccc2)cc1 | inconclusive: 9.53 µM [inhibitor, partial curve] |
| O=C(CN1C(=O)CCC1=O)Nc1nc(-c2ccc3ccccc3c2)cs1 | active: 16.9 µM |
| O=C(O)c1csc(Cc2ccccc2)n1 | inactive |
| CCOC(=O)C(/C(N)=N/C(=O)Nc1ccccc1)=C(\C)O | active: 6.01 µM |
| COc1cccc(C(=O)Cn2c(=N)n(C)c3ccccc32)c1 | active: 1.2 µM |
| Cc1ccc(Cl)cc1N1CCN(C(=O)Cc2c(C(=O)O)c(C)cn2C)CC1 | inconclusive: 23.9 µM [inhibitor, partial curve, poor fit] |
| O=C(NCc1ccc(Cl)cc1)C(=O)NCC(c1cccnc1)N1CCN(c2ccc(F)cc2)CC1 (stereo unspecified) | inactive |
| Cc1ccccc1-n1cnc2cc(NCc3cccs3)ccc21 | inconclusive: 37.9 µM [inhibitor, single point] |
| O=C(Nc1cccc(Br)c1)c1ccn[nH]1 | inconclusive: 23.9 µM [inhibitor, partial curve, poor fit] |
| COc1ccc(OCC(=O)N/N=C/c2cccn2-c2cccc(C(=O)O)c2)cc1 | active: 13.5 µM |
| COc1ccc(NC(=O)c2cnn(-c3ccccc3)c2C)cc1OC | active: 10.7 µM |
| CCN1CCN(Cc2ccc(NC(=O)c3cc(NC(=O)c4cc(C)on4)cc(OC)c3)cc2C(F)(F)F)CC1 | inconclusive: 37.9 µM [inhibitor, partial curve, poor fit] |
| CCc1ccccc1OCCSc1nc(-c2cccs2)nc2cc(=O)[nH]n12 | inconclusive: 21.3 µM [inhibitor, partial curve] |
| O=C(/C=C1\C(=O)Nc2ccccc21)/C=C1\C(=O)Nc2ccccc21 | inconclusive: 9.53 µM [inhibitor, partial curve] |
| Fc1cccc(/C=N/Nc2ncnc3nc[nH]c23)c1 | active: 19 µM |
| Cc1oc2nc(SCC(=O)N3CCCCC3)nc(N)c2c1C | inconclusive: 21.3 µM [inhibitor, single point] |
| Cc1c(Cc2ccccc2)sc(NC(=O)c2ccco2)c1C(N)=O | active: 7.57 µM |
| COc1ccc(/C=C/C(=O)Nc2ccccc2C(=O)NCC(c2ccc(OC)cc2)N(C)C)cc1 (stereo unspecified) | active: 10.7 µM |
| O=C(O)CCn1c(-c2ccccn2)nc2ccccc21 | inconclusive: 26.9 µM [inhibitor, partial curve, poor fit] |
| Nc1nonc1C(=O)N/N=C\c1cc2c(cc1Cl)OCO2 | inconclusive: 13.5 µM [inhibitor, partial curve] |
| O=C(Nc1nnc(C2CCCO2)s1)c1ccc(Br)cc1 (stereo unspecified) | inconclusive: 15.1 µM [inhibitor, partial curve] |
| O=C(CSCc1ccc(Cl)cc1)Nc1cccc(C(=O)O)c1 | inconclusive: 16.9 µM [inhibitor, partial curve, poor fit] |
| CCN(c1ccc(OC)cc1)S(=O)(=O)c1nnc(NC(=O)C2CCCCC2)s1 | inactive |
| O=C(Nc1ccc(S(=O)(=O)NC2=NCCCCC2)cc1)c1ccc(C(F)(F)F)cc1 | inconclusive: 37.9 µM [inhibitor, partial curve, poor fit] |
| CNC(=O)c1c(NC(=O)c2ccco2)sc2c1CCC2 | inconclusive: 16.9 µM [inhibitor, partial curve, poor fit] |

| Compound | Potency |
| --- | --- |
| Cc1ccc(N2C(=O)N(CC(=O)Nc3cccc([N+](=O)[O-])c3C)C(=O)C2C)cc1 (stereo unspecified) | inconclusive: 37.9 µM [inhibitor, partial curve, poor fit] |
| O=C(c1cccs1)N1CCc2ccccc21 | active: 26.9 µM |
| CN1CCN(c2ccc(NC(=S)NC(=O)c3cccc4ccccc34)cc2)CC1 | inconclusive: 16.9 µM [inhibitor, partial curve] |
| Cc1ccc(NC(=O)c2cccc(OCc3c(C)noc3C)c2)cc1 | active: 23.9 µM |
| O=c1c2ccccc2sc2ccc(Cl)cc12 | inconclusive: 5.36 µM [inhibitor, partial curve] |
| Cc1cc2c(cc(C(=O)OC(C(=O)NCC3CCCO3)C(C)C)n2C)o1 (stereo unspecified) | inconclusive: 37.9 µM [inhibitor, partial curve, poor fit] |
| Cc1cc(C)c2oc(-c3cc(NC(=O)Cc4ccccc4)ccc3Cl)nc2c1 | inactive |
| COc1cccc(Nc2nc(N)nc(-c3oc4ccccc4c3C)n2)c1 | active: 19 µM |
| CCCCOc1ccc(C(=O)Nc2ccc3c(c2)OCO3)cc1 | inconclusive: 2.69 µM [inhibitor, full curve] |
| CCOc1ccc(Br)cc1C(=O)N/N=C/c1cccc(C)n1 | inactive |
| Oc1ccc(O)c(-c2cnns2)c1 | active: 8.49 µM |
| COc1cccc(NC(=O)Cn2c(=O)n(Cc3ccccc3)c(=O)c3c2c2cc(C)ccc2n3C)c1 | inactive |
| C=CCSc1n[nH]c(-c2ccc(OC)cc2)n1 | active: 15.1 µM |
| CC(NC(=O)CSc1nnc(-c2cc3cc(Cl)ccc3o2)n1C)c1ccccc1 (stereo unspecified) | inconclusive: 9.53 µM [inhibitor, partial curve, poor fit] |
| N#Cc1c(N)n[nH]c1-c1cc2c([nH]1)CCCC2 | inconclusive: 26.9 µM [inhibitor, single point] |
| COc1ccc(-c2nnc(-c3cc(OC)c(OC)c(OC)c3)o2)cc1OC | inactive |
| COc1ccc(NC(=O)CN(C)C(=O)c2cc(-c3ccncc3)nc3ccccc23)cc1 | inconclusive: 37.9 µM [inhibitor, partial curve, poor fit] |
| CCC(C)NC(=O)CSc1nc2c(sc3ccccc32)c(=O)n1CCc1ccccc1 (stereo unspecified) | inactive |
| O=S(=O)(Nc1nc2ccccc2s1)c1ccc(Cl)nc1 | inactive |
| [O-]C1=N/[N+](=C/c2ccccc2)CC1 | inconclusive: 37.9 µM [inhibitor, single point] |
| COc1ccc(/C=C/C(=O)c2c(O)cc(C)oc2=O)c(OC)c1 | active: 1.35 µM |
| CCN(CC)c1ccc(NC(=O)c2cccnc2)cc1 | inconclusive: 23.9 µM [inhibitor, partial curve] |
| O=C(CC1C(=O)NCCN1Cc1ccc(Cl)c(F)c1)NC1CCC1 (stereo unspecified) | inactive |
| O=C(Nc1ccccc1C(F)(F)F)Nc1c[nH]c(=O)[nH]c1=O | inactive |
| CCc1ccc2c(c1)[C@H]1OCC[C@H]1[C@@H](c1cccs1)N2 | active: 15.1 µM |
| COc1ccc(Nc2c(-c3ccco3)nc3cccc(C)n23)cc1 | inconclusive: 30.1 µM [inhibitor, partial curve, poor fit] |

| Compound | Potency |
| --- | --- |
| Cn1c(CCNC(=O)c2ccccc2)nc2cc(NC(=O)c3ccco3)ccc21 | inconclusive: 30.1 µM [inhibitor, single point] |
| COc1ccc(C(=O)Nc2nc3ccccc3c(=O)[nH]2)cc1 | active: 2.69 µM |
| O=C(COc1ccc(Cl)cc1)NCc1nnc(SCC(=O)N2CCCCCC2)o1 | inactive |
| CC(=O)NCCc1csc(-c2ccccc2)n1 | inconclusive: 26.9 µM [inhibitor, single point] |
| O=C(COC(=O)c1ccc(F)cc1Cl)NCc1ccco1 | inconclusive: 37.9 µM [inhibitor, partial curve, poor fit] |
| COc1ccccc1CNC(=O)CN(C)Cc1ccc(SC)cc1 | inactive |
| CSc1ncccc1C(=O)Nc1nnc(C2CC2)s1 | inactive |
| Cc1ccc2c(C)c(C(=O)N3CCC(c4nc5ccccc5s4)CC3)oc2c1C | inconclusive: 37.9 µM [inhibitor, partial curve, poor fit] |
| CC(C)(CN1CCc2ccccc2C1)NS(=O)(=O)c1ccc(Cl)cc1 | inactive |
| COc1ccc(-c2cc(C(=O)N3CCN(C(=O)c4ccco4)CC3)[nH]n2)cc1 | inconclusive: 30.1 µM [inhibitor, partial curve, poor fit] |
| COc1ccc2c(c1)CC/C(=C\c1ccc(OC)c(Cn3nc(C)cc3C)c1)C2=O | inconclusive: 15.1 µM [inhibitor, partial curve] |
| COc1ccccc1NC(=O)CCNC(=O)c1ccc(C)cc1 | inactive |
| COc1ccc(OCC(=O)NNC(=O)Cc2coc3cc(OC)ccc23)cc1 | inactive |
| COc1ccc(Nc2nc(N)nc(CSC(=S)N3CCN(c4ccccc4)CC3)n2)cc1 | inactive |
| O=C(NNc1nc2cc3c(cc2s1)OCO3)c1ccccc1 | inconclusive: 21.3 µM [inhibitor, single point] |
| COc1ccc(CNC(=S)N/N=C(/C)c2ccccc2)cc1 | active: 7.57 µM |
| CCN(CC)C(=O)/C=C/c1ccccc1 | inconclusive: 21.3 µM [inhibitor, partial curve, poor fit] |
| Cc1ccc(Nc2nnc(SCC(=O)Nc3cccc(S(=O)(=O)NC4=NCCCCC4)c3)s2)c(C)c1 | inconclusive: 23.9 µM [inhibitor, single point] |
| CCN(Cc1nc(-c2ccccc2)no1)C(=O)c1ccco1 | inactive |
| COc1ccccc1NC(CC(=O)c1ccccc1)C(=O)OCC(=O)c1ccc(C)c(C)c1 (stereo unspecified) | active: 3.01 µM |
| COc1ccc(Cn2c(O)c(/C=N/NC(=O)c3cccnc3)c3ccccc3c2=O)cc1 | inconclusive: 16.9 µM [inhibitor, partial curve] |
| Nc1nc2ccccc2n1/N=C/c1ccc(-c2ccccc2)o1 | inconclusive: 12 µM [inhibitor, partial curve, poor fit] |
| CCOC(=O)C1CCCN(S(=O)(=O)Cc2ccccc2Cl)C1 (stereo unspecified) | inactive |
| Cc1cccc(-n2ncc3c(NCCCn4ccnc4)ncnc32)c1 | inconclusive: 23.9 µM [inhibitor, single point] |
